PubChem BioAssay AID1347073 (National Center for Advancing Translational Sciences (NCATS), 2019)
About 200 (0.44%) of roughly 45,000 compounds were called active. Another 7% or so got no clear call; they are omitted. Calls come from the whole dose curve; as a rule, active = well fitted activation curve with a large enough effect; inconclusive = small, poorly fitted or top-dose-only effect; inactive = no such curve, though single readings can be large or run the other way. This is one part of the list.

test: qHTS of TDP-43 Inhibitors: NCGC Sytravon Library Screen; settings: yeast TDP-43 toxicity rescue, BacTiter-Glo growth, 24 h; series mostly up to 46.1 µM; growth rescue (activation): at the top concentration; note: 0% is about no effect; nearly all actives have a fitted effect of over 55% in size
How it was run: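 TDP-43-expressing yeast, pregrown in raffinose, seeded at OD600 0.02 in galactose medium with compound for 24 hr at 30 deg C. Growth read by BacTiter-Glo luminescence, so rescue of toxicity appears as activation.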

Compound | growth rescue (activation)
O=C(c1ccc(F)cc1)N(C(=O)c1ccc(F)cc1)c1ncccn1 | inactive: 17%
CCCCNC(=O)Cn1cnc2sc(C)c(S(=O)(=O)N3CCN(c4ncccn4)CC3)c2c1=O | inactive: 5.7%
CCOC(=O)N1CCN(C(=O)Cn2ncn3nc(-c4cccs4)cc3c2=O)CC1 | inactive: -36.5%
CCOC(=O)C1=C(COC(=O)COc2ccccc2C=O)NC(=O)NC1C (centres undefined) | inactive: 12.9%
O=c1sc2ccccc2n1Cc1ccccc1 | inactive: 31.8%
CN(c1ccccc1)S(=O)(=O)c1cccc(NC(=O)c2cc(=O)c3ccccc3o2)c1 | inactive: 2.76%
COc1ccc(C2C3=C(CC(C)(C)CC3=O)Oc3ncn4nc(-c5cccnc5)nc4c32)cc1 (centres undefined) | inactive: 24.6%
CC(C)(C)Nc1nc(N)nc(Cl)n1 | inactive: -3.99%
COc1cccc(O)c1CN1CCCC(C(=O)c2cccc(C(F)(F)F)c2)C1 (centres undefined) | inactive: 2.48%
COc1cc(CNCCO)cc(Cl)c1OCc1ccc(Cl)cc1Cl | inactive: -20.5%
O=C(NCc1ccccc1)C(c1ccc(F)cc1)N(C(=O)c1csnn1)c1ccccc1 (centres undefined) | inactive: -7.63%
COc1cc(C2c3c([nH]c(=O)[nH]c3=O)Nc3ccc4ccccc4c32)ccc1O (centres undefined) | inactive: -0.486%
CCCC1Cc2[nH]c(=O)c(C#N)cc2CO1 (centres undefined) | inactive: 8.32%
COc1ccc(C)cc1N(CC(=O)Nc1cccnc1)S(=O)(=O)c1ccc(C)cc1 | inactive: 4.48%
CC1=NOC(=O)/C1=C/c1ccc(O)c(Cl)c1 | inactive: -11.2%
CC(OC(=O)c1ccccc1CCc1ccccc1)C(N)=O (centres undefined) | inactive: -1.07%
CC1(C)Cc2noc(N)c2C(C)(C)N1OC(=O)c1ccco1 | inactive: 14.2%
CC(C)c1nnc(NC(=O)CCS(=O)(=O)c2ccccc2)s1 | inactive: 13.2%
O=C(Nc1ccc(F)cc1)Nc1nnc(-c2ccco2)s1 | inactive: -2.85%
CN(C)c1nc(Nc2ccc(Cl)c(Cl)c2)nc(N(C)C)n1 | inactive: 5.39%
Nc1nc(-c2ccccc2)c(N=Nc2cccc3ccccc23)s1 | inactive: -7.27%
COc1ccccc1CNC(=O)C1CCCN(S(=O)(=O)c2cccs2)C1 (centres undefined) | inactive: 14.5%

Compound | growth rescue (activation)
CCOCCn1c(CN2CCc3ccccc3C2)nc2c1c(=O)n(C)c(=O)n2C | inactive: -2.33%
COc1ccc(CCNC(=O)COc2ccccc2[N+](=O)[O-])cc1OC | inactive: 4.07%
Cn1cccc1/C=C1\SC(=S)N(NC(=O)c2ccccc2O)C1=O | inactive: 1.23%
CCN(CCC#N)c1ccc(/C=N/Nc2nc(C)cc(=O)[nH]2)c(C)c1 | inactive: 17.8%
CC(=O)Nc1ccc(S(=O)(=O)Oc2ccccc2N2C(=O)C3C4CCC(C4)C3C2=O)cc1 (centres undefined) | inactive: 12%
Cc1ccc(C)c(OCC(=O)NC(Cc2c[nH]c3ccccc23)C(=O)O)c1 (centres undefined) | inactive: -3.07%
Cc1cccc(C(=O)OCC(=O)Nc2ccc(F)cc2)c1 | inactive: -1.28%
Cc1onc(-c2ccccc2)c1C(=O)Nc1nncs1 | inactive: -11%
CC(=O)c1c(C)[nH]c(C(=O)Nc2ccc(Cl)cc2)c1C | inactive: -6.02%
Cc1cccc(C)c1NC(=O)COC(=O)c1ccccc1[N+](=O)[O-] | inactive: 13.4%
O=C(CCCOc1ccc(Cl)cc1Cl)NCc1ccccn1 | inactive: -9.15%
Cc1ccc(S(=O)(=O)N2CCN(C(=O)CSc3ccc(F)cc3)CC2)cc1 | inactive: 4%
O=C(CNC(=O)OCc1ccccc1)NC1CCCCNC1=O (centres undefined) | inactive: -14.4%
Cc1ccc(NC(=O)C(C)OC(=O)CSc2ccccc2)cc1 (centres undefined) | inactive: -24.2%
CCCC(=O)N1c2ccccc2C(N(C(C)=O)c2ccccc2)CC1C (centres undefined) | inactive: -11.9%
CCn1c2ccccc2c2cc(CN3CCN(Cc4ccccc4F)CC3)ccc21 | inactive: 8.27%
COc1cc(CC(=O)Nc2nc(-c3ccc(F)c(F)c3)cs2)cc(OC)c1OC | inactive: 9.61%
O=C(Nc1ccc(Cl)cn1)c1cccc(S(=O)(=O)N2CCCCC2)c1 | inactive: 2.84%
O=C(NCc1ccccn1)Nc1ccc(Br)cc1Cl | inactive: 9.51%
COCCn1c(-c2ccccc2Cl)nc2c(c(=O)c3ccccc3n2C)c1=O | inactive: 2.61%
Cc1ccc(-c2cc3ccccc3nc2N2CCOCC2)cc1 | inactive: -14.3%
CCCCc1n[nH]c2c1/C(=N/O)CC(c1ccccc1)C2 (centres undefined) | inactive: 14.6%

Compound | growth rescue (activation)
CC1(C(=O)Nc2ccc3[nH]ncc3c2)CCN1C(=O)C1(c2ccccc2)CC1 (centres undefined) | inactive: 3%
CCCS(=O)(=O)NC(=O)C1(C)CCN(C(=O)c2ccc(C(=O)OC)cc2)C1 (centres undefined) | inactive: 5.64%
CN(C)C=NC(=O)c1cn(-c2ccc(F)cc2)c(=O)c2ccccc12 | inactive: -6.48%
CCOC(=O)C1CCCN(C(=O)CCn2nnnc2CN2CCOCC2)C1 (centres undefined) | inactive: -12%
CCC(=O)N1CCc2cc(Br)cc(S(=O)(=O)N3CCC(C(=O)NCCCOC(C)C)CC3)c21 | inactive: -31%
CC(C)OC(=O)CC1C(=O)NCCN1C(=S)NC(=O)c1cccs1 (centres undefined) | inactive: 4.12%
Cc1nc(NC(=O)c2ccccc2)sc1Cc1ccc2c(c1)OCO2 | inactive: 19.9%
O=C(Nc1ccccc1C(=O)NC(Cc1ccc(O)cc1)C(=O)O)c1ccccc1 (centres undefined) | inactive: -8.99%
CCOC(=O)C(=O)NC(C)c1ccccc1 (centres undefined) | inactive: -3.87%
Cc1ccc(S(=O)(=O)N2CCOCC2)cc1NC(=O)COC(=O)CCC(=O)c1ccc(F)cc1 | inactive: 34.6%
COc1ccccc1CNC(=O)c1nccnc1CO | inactive: 3.1%
Cc1ccc(S(=O)(=O)c2cnc(-c3ccccc3)nc2N2CCCCC2)cc1 | inactive: 4.98%
O=C(Nc1nnc(COc2ccccc2F)s1)Nc1ccccc1F | inactive: 7.53%
O=S(=O)(NCC1CCCO1)c1ccccc1F (centres undefined) | inactive: 5.98%
O=[N+]([O-])c1ccc(N2CCNCC2)cc1Sc1nc2ccccc2[nH]1 | inactive: -26.5%
COC(=O)c1ccc(C)c(NC(=O)C(CCSC)NC(=O)c2cc(OC)c(OC)c(OC)c2)c1 (centres undefined) | inactive: 10%
CSc1ncc(Cl)c(C(=O)Nc2ccc(NC(C)=O)cc2)n1 | inactive: -5.92%
O=C(COC(=O)COc1ccccc1F)Nc1cccc(S(=O)(=O)N2CCCCC2)c1 | inactive: 7.43%
O=C(Nc1ccc(F)cc1)Nc1ccc(N2CCCC2)c(S(=O)(=O)Nc2ccccc2Cl)c1 | inactive: 8.63%
COc1ccccc1N(C)S(=O)(=O)c1ccc(C(=O)OCC(=O)c2c[nH]c3ccccc23)cc1 | inactive: 15.7%
N#Cc1ccccc1S(=O)(=O)N1CCN(C(=O)Cc2n[nH]c(=O)c3ccccc23)CC1 | inactive: 21.3%
CCOc1ccccc1N1CC(C(=O)NC2CCCCCC2)CC1=O (centres undefined) | inactive: -10.7%

Compound | growth rescue (activation)
CCc1ccccc1NC(=O)c1ccc(CN2CCC(Cc3ccccc3)CC2)cc1 | inactive: 4.31%
CCOC(=O)c1cc2c(C)[nH]c(C)c2cc(C(=O)OCC)c1=O | inactive: -14.9%
CCOc1ccccc1NC(=S)N(Cc1cc2ccc(C)cc2[nH]c1=O)CC1CCCN1CC (centres undefined) | inactive: 7.1%
COc1ccccc1N(CC(=O)NCCSCc1ccccc1)S(=O)(=O)c1ccc(C)cc1 | inactive: 5.57%
Cc1cccc(-n2c(N)cc(=O)nc2SCC(=O)Nc2nnc(C)s2)c1 | inactive: 27.1%
Cc1cc(C)cc(OC(=O)C23CCC(C)(C(=O)O2)C3(C)C)c1 (centres undefined) | inactive: -6.39%
COCCCNC(=O)[C@H](CSCc1ccccc1)N1Cc2ccccc2C1=O | inactive: 22.5%
COc1ccc(C(=O)Cn2nnc(-c3ccccc3NC(=O)c3ccco3)n2)cc1 | inactive: 28.5%
Nc1nc(NCCc2ccccc2)nc(NCCO)c1[N+](=O)[O-] | inactive: 6.03%
Cc1cccc[n+]1CC(=O)c1ccc([N+](=O)[O-])cc1 | inactive: 15.4%
Cc1cc(C)cc(OCC(=O)NCCc2nc3ccccc3[nH]2)c1 | inactive: 13.3%
CC(=O)Nc1cccc(NC(=O)c2ccc(COc3ccccc3)cc2)c1 | inactive: 28.9%
COc1cc(/C=C/C(=O)O)cc(S(=O)(=O)N2CCc3ccccc32)c1OC | inactive: 13%
CN(Cc1ccccc1)S(=O)(=O)c1ccc2c(c1)NC(=O)CC(=O)N2 | inactive: 18.1%
CCOC(=O)C1(C)CCCCN1C(=O)c1ccco1 (centres undefined) | inactive: 14.7%
CCC(=O)Nc1cccc(NC(=O)c2ccccc2Br)c1 | inactive: 13%
Cc1ccc(CSc2nnc(SCC(=O)N/N=C/c3ccc(C(=O)O)cc3)s2)cc1 | inactive: -1.16%
Cc1ccccc1C(=O)Nc1ccccc1NC(=O)c1ccccc1C | inactive: -1.86%
COc1ccc2c(c1)CC/C(=C/c1cc(OC)c(OC)c(OC)c1)C2=O | inactive: -3.48%
Cc1ccc(-c2cc(C(F)(F)F)n3nc(C(=O)N4CCN5CCCC5C4)cc3n2)cc1 (centres undefined) | inactive: -17.6%
CC1CCC2(CC1)NC(=O)N(CC(=O)Nc1cc(S(=O)(=O)N3CCCC3)ccc1Cl)C2=O (centres undefined) | inactive: -7.56%
CCS(=O)(=O)CCSc1nc2ccccc2s1 | inactive: 13.3%

Compound | growth rescue (activation)
CC1CN(C2=NC(=O)/C(=C/c3ccncc3)S2)CC(C)O1 (centres undefined) | inactive: -2.97%
CCCNC(=S)Nc1cccc(C(F)(F)F)c1 | inactive: -18.3%
CCc1cccc2c1NC1(CCCC1)CC2C (centres undefined) | inactive: -11.4%
Cc1ccc(Cl)cc1NC(=O)C1CCCCC1C(=O)O (centres undefined) | inactive: 4.8%
COc1ccc(-c2cc(C(=O)NC3CCCC3)no2)cc1 | inactive: 29.7%
CC1=NN(C(=O)COc2ccccc2)C(O)(c2ccccc2)C1 (centres undefined) | inactive: 24.5%
Cc1cccc(C)c1NC(=O)NN=C1CCCCC1 | inactive: 6.66%
COc1ccc(OCCSc2nc(N)cc(=O)[nH]2)cc1 | inactive: -12.7%
CCC(=O)N1CCN(c2cc3c(cc2F)c(=O)c(C(=O)O)cn3CC)CC1 | inactive: -7.42%
Cc1n[nH]c(=S)n1-c1ccccc1 | inactive: -17.5%
COc1cc(/C=N/Nc2cccc(C)c2)ccc1OC(=O)c1cccs1 | inactive: 9.3%
O=S(=O)(c1cnc(Cl)c(Cl)c1)N1CCN(c2ncccn2)CC1 | inactive: 8.62%
CC1(C(=O)Nc2ccc3c(c2)OCO3)CCN1C(=O)Cc1cccs1 (centres undefined) | inactive: -8.49%
S=c1[nH]nc(C2CCCCC2)n1/N=C/C(Cl)=C\c1ccccc1 | inactive: 17.5%
CC1=CN2C(=N)/C(=C/c3ccc(Sc4ccc(Cl)cc4)o3)C(=O)N=C2S1 | inactive: 7.44%
COc1ccc(Cl)cc1C(=O)NNC(=O)c1nc2nc(C)cc(C)n2n1 | inactive: 7.03%
COC(=O)c1ccccc1NC(=O)Cc1nc(-c2ccccc2)sc1-c1ccc(C)cc1 | inactive: 6.76%
CC1CC(OC(=O)c2ccccc2C(=O)c2ccc(Cl)cc2)C(=O)O1 (centres undefined) | inactive: 18.1%
CC1=NN(C(=O)CSCc2ccccc2)C(O)(c2ccc(Cl)cc2)C1 (centres undefined) | inactive: 2.92%
CC(C)C(NC(=O)C(C)N1C(=O)c2ccccc2C1=O)c1ccccc1 (centres undefined) | inactive: 6.73%
CN1Cc2c(N3CCOCC3)nc3sc(C#N)c(N)c3c2CC1(C)C | inactive: 1.16%
